The supplement of paper PMC8728848
The other results are listed elsewhere or left out.

Legend:
Test in all cases: glycan array binding signal (z-score within array); higher = stronger binding
Conditions in all cases: glycan notation: IUPAC condensed, linker removed
[1] = molecular target: GlcNAc(b1-4)GlcNAc(b1-4)GlcNAc(b1-4)GlcNAc(b1-4)GlcNAc(b1-4)GlcNAc
In short: (§1)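 From the Consortium for Functional Glycomics database, 3228 arrays were curated, keeping only those whose protein sequence was available. Binding is given as a within-array Z-score averaged across arrays sharing a protein sequence and across linkers. Negative Z-scores can be read as non-binding.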

[2] = molecular target: GlcNAc(b1-4)[GlcNAc(b1-6)]GalNAc
In short: as §1

[3] = molecular target: GlcNAc(b1-6)Gal(b1-4)GlcNAc
In short: as §1

GlcNAc(b1-6)GalNAc = molecular target: GlcNAc(b1-6)GalNAc
In short: as §1

Kdn(a2-3)Gal(b1-3)GlcNAc = molecular target: Kdn(a2-3)Gal(b1-3)GlcNAc
In short: as §1

Kdn(a2-3)Gal(b1-4)GlcNAc = molecular target: Kdn(a2-3)Gal(b1-4)GlcNAc
In short: as §1

[4] = molecular target: Man(a1-2)Man(a1-2)Man(a1-3)Man
In short: as §1

[5] = molecular target: Man(a1-2)Man(a1-2)Man(a1-3)[Man(a1-2)Man(a1-3)[Man(a1-2)Man(a1-6)]Man(a1-6)]Man(b1-4)GlcNAc(b1-4)GlcNAc
In short: as §1

[6] = molecular target: Man(a1-2)Man(a1-2)Man(a1-3)[Man(a1-2)Man(a1-6)[Man(a1-3)]Man(a1-6)]Man(b1-4)GlcNAc(b1-4)GlcNAc
In short: as §1

[7] = molecular target: Man(a1-2)Man(a1-2)Man(a1-6)[Man(a1-3)]Man
In short: as §1

Man(a1-2)Man(a1-3)Man = molecular target: Man(a1-2)Man(a1-3)Man
In short: as §1

[8] = molecular target: Man(a1-2)Man(a1-3)[Man(a1-2)Man(a1-6)]Man
In short: as §1

[9] = molecular target: Man(a1-2)Man(a1-3)[Man(a1-3)[Man(a1-6)]Man(a1-6)]Man(b1-4)GlcNAc(b1-4)GlcNAc
In short: as §1

[10] = molecular target: Man(a1-2)Man(a1-3)[Man(a1-6)]Man(a1-6)[Man(a1-2)Man(a1-3)]Man(b1-4)GlcNAc(b1-4)GlcNAc
In short: as §1

Man(a1-3)[Man(a1-6)]Man = molecular target: Man(a1-3)[Man(a1-6)]Man
In short: as §1

[11] = molecular target: Man(a1-3)[Man(a1-6)]Man(a1-6)[Man(a1-3)]Man(b1-4)GlcNAc(b1-4)GlcNAc
In short: as §1

[12] = molecular target: Man(a1-3)[Man(a1-6)]Man(b1-4)GlcNAc(b1-4)GlcNAc
In short: as §1

Man(b1-4)GlcNAc = molecular target: Man(b1-4)GlcNAc
In short: as §1

Neu5Ac(a2-3)Gal = molecular target: Neu5Ac(a2-3)Gal
In short: as §1

[13] = molecular target: Neu5Ac(a2-3)Gal(b1-3)GalNAc
In short: as §1

[14] = molecular target: Neu5Ac(a2-3)Gal(b1-3)GalNAc(b1-3)Gal(a1-4)Gal(b1-4)Glc
In short: as §1

[15] = molecular target: Neu5Ac(a2-3)Gal(b1-3)GalNAc(b1-4)[Neu5Ac(a2-3)]Gal(b1-4)Glc
In short: as §1

[16] = molecular target: Neu5Ac(a2-3)Gal(b1-3)GalNAc6S
In short: as §1

[17] = molecular target: Neu5Ac(a2-3)Gal(b1-3)GlcNAc
In short: as §1

[18] = molecular target: Neu5Ac(a2-3)Gal(b1-3)GlcNAc(b1-3)Gal(b1-3)GlcNAc
In short: as §1

[19] = molecular target: Neu5Ac(a2-3)Gal(b1-3)GlcNAc(b1-3)Gal(b1-4)GlcNAc
In short: as §1

[20] = molecular target: Neu5Ac(a2-3)Gal(b1-3)GlcNAc6S
In short: as §1

[21] = molecular target: Neu5Ac(a2-3)Gal(b1-3)[Fuc(a1-4)]GlcNAc
In short: as §1

[22] = molecular target: Neu5Ac(a2-3)Gal(b1-3)[Fuc(a1-4)]GlcNAc(b1-3)Gal(b1-4)[Fuc(a1-3)]GlcNAc
In short: as §1

[23] = molecular target: Neu5Ac(a2-3)Gal(b1-3)[Neu5Ac(a2-3)Gal(b1-4)]GlcNAc
In short: as §1

[24] = molecular target: Neu5Ac(a2-3)Gal(b1-3)[Neu5Ac(a2-6)]GalNAc
In short: as §1

Neu5Ac(a2-3)Gal(b1-4)Glc = molecular target: Neu5Ac(a2-3)Gal(b1-4)Glc
In short: as §1

[25] = molecular target: Neu5Ac(a2-3)Gal(b1-4)GlcNAc
In short: as §1

[26] = molecular target: Neu5Ac(a2-3)Gal(b1-4)GlcNAc(b1-3)Gal(b1-3)GlcNAc
In short: as §1

[27] = molecular target: Neu5Ac(a2-3)Gal(b1-4)GlcNAc(b1-3)Gal(b1-4)GlcNAc
In short: as §1

[28] = molecular target: Neu5Ac(a2-3)Gal(b1-4)GlcNAc(b1-3)Gal(b1-4)GlcNAc(b1-3)Gal(b1-4)GlcNAc
In short: as §1

B1: LEA (Lycopersicon esculentum) (protein)
chain: NEVFDVPMNETIGVESINASVGGYPRCGAQGDGGNCPSGMCCSVWGWCGKTYGYCAPQNCQKQCPAPYPEGRCGWQADGKSCPNGKCCSYGGWCGTTSDYCARQNCQKQCILPSPPPPPPPPPGFPRPECGLQKNGERCTKPGECCSIWGLCGATYKYCDPQHCQKQCSAPFPPGRCGWQADGRPCPTGQCCSFSGWCGTTSAHCTYPQCVSQCNDPRFPSSLNNRIQSFML
[1]
  glycan array binding signal (z-score): 2.26
[2]
  glycan array binding signal (z-score): -0.553
[3]
  glycan array binding signal (z-score): -0.492
GlcNAc(b1-6)GalNAc
  glycan array binding signal (z-score): -0.545
Kdn(a2-3)Gal(b1-3)GlcNAc
  glycan array binding signal (z-score): -0.443
Kdn(a2-3)Gal(b1-4)GlcNAc
  glycan array binding signal (z-score): 1.6
[4]
  glycan array binding signal (z-score): -0.419
[5]
  glycan array binding signal (z-score): -0.426
[6]
  glycan array binding signal (z-score): -0.336
[7]
  glycan array binding signal (z-score): -0.296
Man(a1-2)Man(a1-3)Man
  glycan array binding signal (z-score): -0.54
[8]
  glycan array binding signal (z-score): -0.556
[9]
  glycan array binding signal (z-score): 1.57
[10]
  glycan array binding signal (z-score): 0.069
Man(a1-3)[Man(a1-6)]Man
  glycan array binding signal (z-score): -0.539
[11]
  glycan array binding signal (z-score): 0.948
[12]
  glycan array binding signal (z-score): 1.87
Man(b1-4)GlcNAc
  glycan array binding signal (z-score): -0.51
Neu5Ac(a2-3)Gal
  glycan array binding signal (z-score): -0.526
[13]
  glycan array binding signal (z-score): -0.56
[14]
  glycan array binding signal (z-score): -0.55
[15]
  glycan array binding signal (z-score): -0.518
[16]
  glycan array binding signal (z-score): -0.466
[17]
  glycan array binding signal (z-score): -0.511
[18]
  glycan array binding signal (z-score): -0.547
[19]
  glycan array binding signal (z-score): 2.06
[20]
  glycan array binding signal (z-score): -0.422
[21]
  glycan array binding signal (z-score): -0.551
[22]
  glycan array binding signal (z-score): -0.384
[23]
  glycan array binding signal (z-score): -0.471
[24]
  glycan array binding signal (z-score): -0.555
Neu5Ac(a2-3)Gal(b1-4)Glc
  glycan array binding signal (z-score): -0.547
[25]
  glycan array binding signal (z-score): 1.57
[26]
  glycan array binding signal (z-score): -0.129
[27]
  glycan array binding signal (z-score): 1.63
[28]
  glycan array binding signal (z-score): 1.44
